According to the supplement of paper PMC8813932:
Counter-ions that a name gives are not always drawn. ± gives the standard deviation of the averaged measurements. Some of the results follow. Many values rest on one well or one pass, so single values are uncertain.

Key:
Test in all cases: log2 surviving fraction relative to plate median (drug vs vehicle, or drug+dl922-947 vs dl922-947 alone); ovarian cancer lines: OVCAR4 is platinum-sensitive while Ov4Cis resists cisplatin and Ov4Carbo carboplatin; higher = more cell survival
Details in all cases: compound concentration: 10 uM, 192 h
[1] = tested on: OVCAR4
[2] = tested on: Ov4Carbo
[3] = tested on: Ov4Cis
[4] = dl922-947 oncolytic adenovirus co-treatment: MOI 10
[5] = dl922-947 oncolytic adenovirus co-treatment: none

SMILES | log2 surviving fraction [1, 4] | log2 surviving fraction [1, 5] | log2 surviving fraction [2, 4] | log2 surviving fraction [2, 5] | log2 surviving fraction [3, 4] | log2 surviving fraction [3, 5]
C[C@@H](O)[C@H]1C(=O)N2C(C(=O)[O-])=C(SC3Cn4cnc[n+]4C3)[C@H](C)[C@H]12 (stereo partly specified) [Biapenem] | -0.242 ± 0.65 | -0.43 ± 0.25 | -0.209 | -0.99 | -0.681 | -0.283
O=C(NCCO[N+](=O)[O-])c1cccnc1 [Nicorandil (Ikorel)] | 0.131 ± 0.014 | -0.00818 ± 0.4 | 0.735 | -0.0749 | 0.527 | 0.573
Cc1cc(C2CCCCC2)n(O)c(=O)c1 [Ciclopirox ethanolamine] | -6.94 ± 0.88 | -8.95 ± 3 | -7.3 | -12.3 | -5.31 | -12.5
CN(C)c1ccc(O)c2c1C[C@H]1C[C@H]3[C@H](N(C)C)C(O)=C(C(N)=O)C(=O)[C@@]3(O)C(O)=C1C2=O [Minocycline HCl] | 1.36 ± 0.19 | 0.4826 ± 0.0029 | 1.13 | 0.817 | 1.09 | -1.61
CCOC(=O)c1ccc(OC(=O)CCCCCNC(=N)N)cc1 [Gabexate mesylate] | 0.344 ± 0.44 | -0.0397 ± 0.93 | -0.00419 | -0.245 | 0.591 | 0.0969
CSc1nc2cc(Cl)c(Oc3cccc(Cl)c3Cl)cc2[nH]1 [Triclabendazole] | 0.336 ± 0.84 | 0.521 ± 0.37 | -0.972 | -1.58 | 0.788 | -1.9
CC(C)NCC(O)c1ccc(O)c(O)c1 (stereo unspecified) [Isoprenaline hydrochloride] | 0.19 ± 0.67 | -0.0965 ± 0.42 | 0.0603 | 0.625 | -0.691 | 0.9
CC(=O)N[C@H]1[C@H]([C@H](O)[C@H](O)CO)OC(C(=O)O)=C[C@@H]1NC(=N)N [Zanamivir (Relenza)] | -0.127 ± 0.33 | 0.456 ± 0.1 | -0.159 | -1.33 | 0.0241 | -0.0979
Nc1nc2c(ncn2COCCO)c(=O)[nH]1 [Acyclovir (Aciclovir)] | -0.386 ± 1.2 | 0.181 ± 0.62 | -0.509 | 0.396 | 0.598 | 0.57
CC(=O)O[C@H]1CC[C@@]2(C)C(=CC[C@@H]3[C@@H]2CC[C@]2(C)C(c4cccnc4)=CC[C@@H]32)C1 [Abiraterone Acetate (CB7630)] | -1.27 ± 0.12 | -0.719 ± 0.48 | 0.666 | -0.482 | 0.0373 | -1.03
OC[C@H]1OC(O)[C@H](O)[C@@H](O)[C@@H]1O (stereo partly drawn) [Dextrose (D-glucose)] | -0.0971 ± 0.58 | -0.0435 ± 0.74 | 0.0994 | 1.55 | -0.457 | -0.573
CC/C(=C(/CC)c1ccc(O)cc1)c1ccc(O)cc1 [Diethylstilbestrol (Stilbestrol)] | 0.00791 ± 0.077 | -3.49 ± 1.3 | -4.43 | 0.00748 | -0.781 | -1.22
O=C(O)c1ccc(-n2nc(-c3ccccc3O)nc2-c2ccccc2O)cc1 [Deferasirox (Exjade)] | -2.89 ± 0.69 | -4.59 ± 0.98 | -2.61 | -6.87 | -1.9 | -3.69
CC(=O)[C@H]1CC[C@H]2[C@@H]3C[C@H](C)C4=CC(=O)CC[C@]4(C)[C@H]3[C@@H](O)C[C@]12C [Medrysone] | 1.36 ± 0.11 | 0.616 ± 0.3 | 1.16 | 0.226 | 1.3 | 0.185
CCc1cc(C(N)=S)ccn1 [Ethionamide] | -0.338 ± 0.87 | 0.391 ± 1.2 | -0.288 | 0.808 | -1.02 | 1.2
CS(=O)(=O)CCNCc1ccc(-c2ccc3ncnc(Nc4ccc(OCc5cccc(F)c5)c(Cl)c4)c3c2)o1 [Lapatinib] | -6.64 ± 2.3 | -5.76 ± 1.9 | -7.51 | -8.7 | -7.31 | -3.96
Cc1c(O)c(=O)ccn1C [Deferiprone] | 0.0222 ± 0.026 | 0.00479 ± 0.71 | 0.776 | 0.0905 | 0.101 | 0.0939
CCc1ccc(CCOc2ccc(CC3SC(=O)NC3=O)cc2)nc1 (stereo unspecified) [Pioglitazone (Actos)] | 0.844 ± 0.33 | 0.19 ± 0.34 | 1.13 | 0.731 | 0.823 | 0.727
CC=CC1=C(C(=O)O)N2C(=O)[C@@H](NC(=O)[C@H](N)c3ccc(O)cc3)[C@H]2SC1 [Cefprozil hydrate (Cefzil)] | -0.347 ± 0.39 | -0.711 ± 0.57 | 0.371 | -0.798 | -0.267 | -0.23
C[C@H](CCC(=O)O)[C@H]1CC[C@H]2[C@@H]3CC[C@@H]4C[C@H](O)CC[C@]4(C)[C@H]3CC[C@]12C [Lithocholic acid] | -0.803 ± 0.71 | 0.458 ± 0.69 | -0.382 | 0.317 | -0.247 | -0.904
O=C(Nc1ccc([N+](=O)[O-])cc1Cl)c1cc(Cl)ccc1O [Niclosamide (Niclocide)] | -8.13 ± 0.23 | -9.74 ± 5.5 | -6.52 | -10.6 | -6.27 | -12.8
CC(C)NCC(O)COc1cccc2[nH]ccc12 (stereo unspecified) [Pindolol] | 0.0836 ± 0.55 | -0.0101 ± 0.86 | 0.537 | -0.489 | -0.163 | -0.121
O=C(O)c1cn(-c2ccc(F)cc2)c2cc(N3CCNCC3)c(F)cc2c1=O [Sarafloxacin HCl] | -0.638 ± 0.67 | 0.745 ± 0.67 | -0.976 | -0.169 | -0.0881 | 0.524
CNCCCC12CCC(c3ccccc31)c1ccccc12 [Maprotiline hydrochloride] | -3.67 ± 0.74 | -2.21 ± 1.1 | -3.59 | -2.57 | -6.67 | -5.78
CCCCN1CCCCC1C(=O)Nc1c(C)cccc1C (stereo unspecified) [Bupivacaine hydrochloride (Marcain)] | 0.0814 ± 1.6 | -1.04 ± 0.5 | -0.244 | 1.14 | -1.74 | -0.379
C[C@@H]1CN(c2c(F)c(F)c3c(=O)c(C(=O)O)cn(C4CC4)c3c2F)C[C@H](C)N1 [Orbifloxacin] | -0.734 ± 0.53 | 0.0821 ± 0.44 | 0.433 | -0.289 | -1.28 | 0.0824
